This test concerns the target T1, recombinant human ErbB3 monomeric protein (cleaved rhErbB3) (human, UniProt P21860 part only, limits assumed).
T1 construct: Monomer made by protease cleavage of the Fc fusion; also called Monomeric ErbB3
As to the kind of experiment: SPR Biacore 37 C; supernatant antibody captured on anti-human Fc, cleaved rhErbB3 injected. On the procedure: The analyses were performed at 37° C. using PBS (Invitrogen, Catalog No. 14040-133) containing 0.05% surfactant P20 (Biacore, Catalog No. BR-1000-54) as running buffer.
The antibodies were captured in individual flow cells at a flow rate of […]. Injection time was varied for each antibody to yield an Rₘₐₓ between 30 and 60 RU. […] The dissociation phase was monitored for up to 1200 seconds. The surface was then regenerated with two 60 second injections of Glycine pH 2.25 (made from Glycine pH 2.0 (Biacore, Catalog No. BR-1003-55) and pH 2.5 (Biacore, Catalog No. BR-1003-56)) at […].
Kinetic parameters were determined using the kinetic function of the BIAevaluation software (Biacore) with double reference subtraction. Kinetic parameters for each antibody, kₐ (association rate constant), kd (dissociation rate constant) and KD (equilibrium dissociation constant) were determined.

Where a chain is given by its changes, count along the chain named.

Experimental findings from patent publication US20180030149A1 (AVEO PHARMACEUTICALS, published 2018) are described below.

Usually Kd stands for a measure of binding affinity in units of concentration. As a reminder, the koff is the first-order rate constant of dissociation. One may read the kon as the second-order rate constant of association.

B1: Sh24C05-32 (antibody, human IgG1, kappa)
heavy: EVQLVESGGGLVKPGGSLRLSCAASGFTFSDYAMSWVRQAPGKGLEWVATISDGGTYTYYPDNVKGRFTISRDNAKNSLYLQMNSLRAEDTAVYYCAREWGDYDGFDYWGQGTLVTVSSASTKGPSVFPLAPSSKSTSGGTAALGCLVKDYFPEPVTVSWNSGALTSGVHTFPAVLQSSGLYSLSSVVTVPSSSLGTQTYICNVNHKPSNTKVDKRV[human IgG1 Fc not listed]
light: DIQMTQSPSSLSASVGDRVTITCRASQEISGYLSWYQQKPGKAPKLLIYAASTLDSGVPSRFSGSGSGTDFTFTISSLQPEDIATYYCLQYDSYPYTFGQGTKLEIKRTVAAPSVFIFPPSDEQLKSGTASVVCLLNNFYPREAKVQWKVDNALQSGNSQESVTEQDSKDSTYSLSSTLTLSKADYEKHKVYACEVTHQGLSSPVTKSFNRGEC
notes: Humanized, human IgG1/kappa
As to B1, the Kd is 603 pM, the koff was 0.00602 s⁻¹ and the kon worked out at 9.98e+06 M⁻¹ s⁻¹.

B2: Sh24C05-36 (antibody, human IgG1, kappa)
heavy: B1 heavy with K13Q
light: B1 light
notes: Humanized, human IgG1/kappa
As to B2, the Kd came out at 837 pM, the koff was determined as 0.00434 s⁻¹ and the kon is 5.18e+06 M⁻¹ s⁻¹.
